Reference: PubChem BioAssay AID1030 (National Center for Advancing Translational Sciences (NCATS), 2008)
Out of some 220,000 compounds screened, about 16,000 (7.3%) were called active. The inconclusive results got no clear call from the source; some entries with a clear call stand among them for comparison. Calls come from the whole dose curve; as a rule, active = well fitted inhibition curve with a large enough effect (not every such curve was filed as active); inconclusive = small, poorly fitted or top-dose-only effect, or another doubt; inactive = no such curve, though single readings can be large or run the other way. A potency beside an inconclusive call is a rough fit, not a confirmed value.

These compounds were tested against Aldehyde dehydrogenase 1A1 (Homo sapiens) (UniProt P00352) (assay: qHTS Assay for Inhibitors of Aldehyde Dehydrogenase 1 (ALDH1A1)). Details: Purified ALDH1A1, NADH fluorescence, propionaldehyde substrate; series mostly up to 75.3 µM.
Sequence of UniProt P00352 (P00352 whole entry, looked up): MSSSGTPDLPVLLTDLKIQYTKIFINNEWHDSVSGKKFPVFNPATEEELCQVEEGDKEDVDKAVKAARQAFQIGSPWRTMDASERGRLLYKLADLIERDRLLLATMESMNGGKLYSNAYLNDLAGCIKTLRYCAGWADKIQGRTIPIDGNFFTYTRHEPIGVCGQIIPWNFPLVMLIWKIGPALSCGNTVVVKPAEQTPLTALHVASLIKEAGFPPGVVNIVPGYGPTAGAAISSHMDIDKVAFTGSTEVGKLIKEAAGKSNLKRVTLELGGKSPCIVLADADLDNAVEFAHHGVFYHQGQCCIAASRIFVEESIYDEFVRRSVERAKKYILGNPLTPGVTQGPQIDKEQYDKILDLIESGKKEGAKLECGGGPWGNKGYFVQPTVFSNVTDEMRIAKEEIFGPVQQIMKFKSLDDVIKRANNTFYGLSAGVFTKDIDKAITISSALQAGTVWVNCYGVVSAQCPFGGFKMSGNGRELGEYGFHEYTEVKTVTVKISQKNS
Potency is the fitted concentration of half-maximal effect; tags give direction and shape of the fitted curve.

Potency, active:
Cc1ccc(S(=O)(=O)N2CCC(C(=O)OCC(=O)N3CC(=O)Nc4ccccc43)CC2)cc1 12.6 µM
Cc1cccc(Nc2n[nH]c(=S)s2)c1C 3.55 µM
Nc1scc2c(C(=O)N/N=C/c3ccc(Cl)cc3)nn(-c3ccccc3)c(=O)c12 10 µM
Cc1cc(C#N)c(C)n1-c1cc(S(=O)(=O)N2CCOCC2)ccc1N1CCCC1 4.47 µM
COc1cc([N+](=O)[O-])ccc1NC(=O)CCCOc1cccc(C)c1C 14.1 µM
NC(=O)C1CCN(C(=O)CN2CCCc3ccccc32)CC1 20 µM
COC(=O)c1c(-c2cccc(OC)c2)csc1N 25.1 µM
CSC(=NC#N)N1CCN(c2ccccn2)CC1 17.8 µM
CCN1C(=O)/C(=C/c2ccc(N3CCCC3)cc2)NC1=S 12.6 µM
O=C(O)C12C[C@H]3C[C@@H](C1)CC(n1ncc(N4CCN(c5ccccc5)CC4)c(Cl)c1=O)(C3)C2 1.26 µM
Cn1ccnc1SCC(=O)Nc1ccc2nc(SCC(=O)NC3CC3)sc2c1 3.55 µM
S=c1[nH]nc(COc2ccccc2)n1/N=C/C(Cl)=C/c1ccccc1 31.6 µM
COC(=O)C1=C(C)NC(=O)/C1=C\c1cc(C)n(-c2ccccc2)c1C 25.1 µM

Potency, inactive:
Cn1c(Cc2ccccc2)n[nH]c1=S
c1ccc(Cn2ccnc2SCc2nnc(-c3ccccc3)o2)cc1
CC(Oc1cccc(F)c1)C(=O)/C=C\N(C)C (stereo not given)
CCOC(=O)C(C)Oc1cccc2c(=O)n(CC(=O)NCc3ccco3)ccc12 (stereo not given)
O=C(N/N=C\c1cn[nH]c1-c1ccccc1)c1ccc([N+](=O)[O-])cc1
O=C(O)c1ccc(-n2c(=O)c3ccccc3c3ccccc3c2=O)cc1
COc1nc(OC)nc(N2CCC(NC(=O)C(Cc3ccc(C(C)C)cc3)NC(C)=O)CC2)n1 (stereo not given)
O=C(Nc1ccccc1Cl)c1cccc(COc2cc(Cl)ccc2Cl)c1
Cc1cc(C)n(C(=O)CCNC(=O)c2ccccc2Br)n1
Cc1cc(NC(=O)c2ccccc2F)nc2c1c(=O)oc1ccccc12
NS(=O)(=O)c1ccc(NCc2ccccc2OCc2ccc(F)cc2)cc1
CCOc1cc(C(=O)Nc2cccc3ncccc23)cc(OCC)c1OCC
O=C(CSC1CC(=O)N(c2ccc(C(=O)O)cc2)C1=O)Nc1ccc(Cl)cc1 (stereo not given)
CC(C)(C)C1CCC(=NNC(=O)CC(=O)NCc2ccccc2)CC1 (stereo not given)
Brc1cccc(-c2nnc(SCc3nc4ccccc4[nH]3)o2)c1
O=C(Nc1nnc(-c2ccc3c(c2)CCCC3)o1)C1COc2ccccc2O1 (stereo not given)
CCOC(=O)N1CCN(C(=O)c2ccc(N3C(=O)CCC3=O)cc2)CC1
CCOC(=O)[C@@H]1C(c2c(OC)cc(OC)cc2OC)=NO[C@@H]1C(=O)OCC
COc1cc2c(cc1OC)C(c1ccc(-c3ccc(Cl)c(Cl)c3)o1)=NCC2
Cc1ccc(S(=O)(=O)n2cnc3cc([N+](=O)[O-])ccc32)cc1C
COC(=O)N1CC=CC1(C)C(=O)NCC1CC1 (stereo not given)
O=C(Cn1nc(-c2ccccc2)ccc1=O)Nc1ccc(N2CCN(C(=O)c3cccs3)CC2)cc1
CCOC(=O)C1=C(O)/C(=C/c2cc(OC)c(O)c(OC)c2)SC1=Nc1ccc(OC)cc1
Cc1nc2ncnn2c(N2CCN(c3cccc(C(F)(F)F)c3)CC2)c1C

Potency, inconclusive:
CCCN1C(=O)c2cc(C(=O)Nc3ccc(OC)c(OC)c3)ccc2C1Nc1ccc(OC)c(OC)c1 (stereo not given) 31.6 µM [inhibitor, single point]
CCN(CC)CCNC(=O)CS(=O)Cc1nc(-c2ccc(C)cc2)oc1C (stereo not given) 22.4 µM [inhibitor, partial curve]
CN(Cc1ccccc1)S(=O)(=O)c1ccc2[nH]cc(C(=O)NCC3CCCO3)c(=O)c2c1 (stereo not given) 28.2 µM [inhibitor, single point]
COc1ncc2nc(-c3ccccc3)c(=O)n(C)c2n1 25.1 µM [inhibitor, partial curve]
COc1ccc2sc(N3C(=O)CC(Cc4cccc(C)c4)C3=O)nc2c1 (stereo not given) 39.8 µM [inhibitor, single point]
CCOC(=O)N1CCN(Cc2oc(CO)cc(=O)c2O)CC1 39.8 µM [inhibitor, single point]
CN(C)S(=O)(=O)c1cc(NC(=O)CN2CCN(c3ccccc3O)CC2)ccc1Cl 39.8 µM [inhibitor, single point]
CC(C)(C)CC(=O)Nc1ccccc1N1CCN(c2ccccc2)CC1 35.5 µM [inhibitor, single point]
COc1cc(C(=O)N/N=C/c2cc([N+](=O)[O-])cs2)cc(OC)c1OC 17.8 µM [inhibitor, single point]
CCOCCO 35.5 µM [inhibitor, single point]
C/C(Cn1nc([N+](=O)[O-])cc1C)=N\NC(=O)c1ccc(C(C)(C)C)cc1 39.8 µM [inhibitor, single point]
CN(C)c1ccc(/C=N/NC(=O)CN2CCN(c3ccc(F)cc3)CC2)cc1 3.16 µM [inhibitor, full curve]
COC(=O)c1ccc(C(=O)OC)c(NC(=O)C(C)C)c1 39.8 µM [inhibitor, single point]
CCC(c1nnc(SCc2nc3ccccc3s2)n1Cc1ccccc1)N(C)C (stereo not given) 39.8 µM [inhibitor, single point]
O=C(NCc1cccs1)C1CCCN1C(=O)Nc1ccccc1 (stereo not given) 25.1 µM [inhibitor, single point]
O=C(Nc1ccc(N2CCOCC2)c(Cl)c1)c1ccc([N+](=O)[O-])o1 25.1 µM [inhibitor, partial curve]
COCC(=O)N1CCC2(CCN(Cc3ccncc3)CC2)CC1 39.8 µM [inhibitor, single point]
O=C(NC1CCCCC1)c1cccnc1C(=O)O 11.2 µM [inhibitor, partial curve]
COc1cc2c(cc1OC)CN(S(=O)(=O)c1cccs1)CC2 39.8 µM [inhibitor, single point]
CN1CCN(c2ncc3nc(CCc4ccccc4)c(=O)n(Cc4ccc(F)cc4)c3n2)CC1 28.2 µM [inhibitor, partial curve]
CC(C)(C)c1ccc(S(=O)(=O)NCC(=O)Nc2ccc(-c3nc4ccccc4s3)cc2)cc1 31.6 µM [inhibitor, single point]
COc1cccc(-c2ccc3ncnc(NCCN4CCOCC4)c3c2)c1 0.0355 µM [inhibitor, full curve, poor fit]
CN1C(=O)C(c2nnc(Nc3cccc4ccccc34)s2)C2CC1(C)Oc1ccccc12 (stereo not given) 28.2 µM [inhibitor, single point]
O=C(COC(=O)C1(c2ccccc2F)CCCC1)Nc1ncc(C(F)(F)F)cc1Cl 39.8 µM [inhibitor, single point]
CCC(=O)Nc1sc(C(=O)OC)c(C)c1C(=O)OC 28.2 µM [inhibitor, single point]
O=S(=O)(NCCc1ccccc1F)c1cccc(S(=O)(=O)N2CCOCC2)c1 28.2 µM [inhibitor, partial curve]
N#C/C(=C\c1ccc(N2CCCC2)c([N+](=O)[O-])c1)c1nc2ccccc2[nH]1 2.82 µM [inhibitor, full curve]
COC(=O)C1C(=O)/C(=C(/C)N2CCCC2)C(=O)CC1(C)C (stereo not given) 11.2 µM [inhibitor, partial curve]
CC1C2=C(CC(C)(C)CC2=O)NC2=C1C(=O)CC(C)(C)C2 28.2 µM [inhibitor, partial curve]
Cc1ccc(/C(O)=C2/C(=O)C(=O)N(CCN3CCOCC3)C2c2ccccn2)cc1 (stereo not given) 25.1 µM [inhibitor, single point]
COc1ccc(OC)c(NC(=S)NCC(c2cccnc2)N2CCOCC2)c1 (stereo not given) 28.2 µM [inhibitor, partial curve]
COc1ccccc1CNc1ccc(N2CCCCC2)cc1 15.8 µM [inhibitor, partial curve]
Cc1ccc(C(=O)NC(=S)NCC(=O)c2ccccc2)cc1 35.5 µM [inhibitor, single point]
CCCCN(C)c1nc(-c2ccco2)c2c(c1C#N)CC(C)(C)OC2 15.8 µM [inhibitor, partial curve]
CN(C)CCn1c(NC(=O)c2ccc(Cl)cc2)nc2ccccc21 39.8 µM [inhibitor, single point]
CC(C)c1ccc(C(=O)Nc2ccc(N3CCOCC3)cc2)cc1 39.8 µM [inhibitor, single point]
O=C(c1cccc(F)c1)N1CCC2(CC1)CN(c1ncccn1)C2 35.5 µM [inhibitor, single point]
COCC(=O)/C=C1\Sc2ccccc2N1C 39.8 µM [inhibitor, single point]
